# PubChem BioAssay AID1347165 (National Center for Advancing Translational Sciences (NCATS), 2019)
# The whole screen tested about 220,000 compounds, of which about 5,700 (2.6%) were called active. The shares of active, inactive and inconclusive entries below differ from those in the screen. The call rests on the fitted dose curve; in most records, active means well fitted inhibition curve with a large enough effect; inconclusive means small, poorly fitted or top-dose-only effect; inactive means no such curve, though single readings can be large or run the other way. A potency beside an inconclusive call is a rough fit, not a confirmed value.
# Target: Lysine-specific demethylase 5B (Homo sapiens) (UniProt Q9UGL1)
# Test: Primary screen for KDM5B Histone Demethylases FDH-coupled qHTS; further: nearly all actives have a fitted effect of over 70% in size; on activity change, negative = inhibition: 0% is about no effect
# Conditions: FDH-coupled NADH fluorescence (FDH is formaldehyde dehydrogenase); activity change, negative = inhibition: at 57.7 µM (top of the series) unless noted
# In short: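 Measured: NADH fluorescence change, 30 min, RT. System: KDM5BΔAP 200 nM final, H3K4me3 peptide, α-KG, Fe(II), ascorbate, NAD⁺ plus FDH, pH 7.5 HEPES. Compounds: titrated, 10 min pre-incubation with enzyme.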
# Potency means the concentration at half of the fitted maximal effect; tags describe the fitted curve by direction and shape.
# Chain of UniProt Q9UGL1 (Q9UGL1 whole entry, looked up): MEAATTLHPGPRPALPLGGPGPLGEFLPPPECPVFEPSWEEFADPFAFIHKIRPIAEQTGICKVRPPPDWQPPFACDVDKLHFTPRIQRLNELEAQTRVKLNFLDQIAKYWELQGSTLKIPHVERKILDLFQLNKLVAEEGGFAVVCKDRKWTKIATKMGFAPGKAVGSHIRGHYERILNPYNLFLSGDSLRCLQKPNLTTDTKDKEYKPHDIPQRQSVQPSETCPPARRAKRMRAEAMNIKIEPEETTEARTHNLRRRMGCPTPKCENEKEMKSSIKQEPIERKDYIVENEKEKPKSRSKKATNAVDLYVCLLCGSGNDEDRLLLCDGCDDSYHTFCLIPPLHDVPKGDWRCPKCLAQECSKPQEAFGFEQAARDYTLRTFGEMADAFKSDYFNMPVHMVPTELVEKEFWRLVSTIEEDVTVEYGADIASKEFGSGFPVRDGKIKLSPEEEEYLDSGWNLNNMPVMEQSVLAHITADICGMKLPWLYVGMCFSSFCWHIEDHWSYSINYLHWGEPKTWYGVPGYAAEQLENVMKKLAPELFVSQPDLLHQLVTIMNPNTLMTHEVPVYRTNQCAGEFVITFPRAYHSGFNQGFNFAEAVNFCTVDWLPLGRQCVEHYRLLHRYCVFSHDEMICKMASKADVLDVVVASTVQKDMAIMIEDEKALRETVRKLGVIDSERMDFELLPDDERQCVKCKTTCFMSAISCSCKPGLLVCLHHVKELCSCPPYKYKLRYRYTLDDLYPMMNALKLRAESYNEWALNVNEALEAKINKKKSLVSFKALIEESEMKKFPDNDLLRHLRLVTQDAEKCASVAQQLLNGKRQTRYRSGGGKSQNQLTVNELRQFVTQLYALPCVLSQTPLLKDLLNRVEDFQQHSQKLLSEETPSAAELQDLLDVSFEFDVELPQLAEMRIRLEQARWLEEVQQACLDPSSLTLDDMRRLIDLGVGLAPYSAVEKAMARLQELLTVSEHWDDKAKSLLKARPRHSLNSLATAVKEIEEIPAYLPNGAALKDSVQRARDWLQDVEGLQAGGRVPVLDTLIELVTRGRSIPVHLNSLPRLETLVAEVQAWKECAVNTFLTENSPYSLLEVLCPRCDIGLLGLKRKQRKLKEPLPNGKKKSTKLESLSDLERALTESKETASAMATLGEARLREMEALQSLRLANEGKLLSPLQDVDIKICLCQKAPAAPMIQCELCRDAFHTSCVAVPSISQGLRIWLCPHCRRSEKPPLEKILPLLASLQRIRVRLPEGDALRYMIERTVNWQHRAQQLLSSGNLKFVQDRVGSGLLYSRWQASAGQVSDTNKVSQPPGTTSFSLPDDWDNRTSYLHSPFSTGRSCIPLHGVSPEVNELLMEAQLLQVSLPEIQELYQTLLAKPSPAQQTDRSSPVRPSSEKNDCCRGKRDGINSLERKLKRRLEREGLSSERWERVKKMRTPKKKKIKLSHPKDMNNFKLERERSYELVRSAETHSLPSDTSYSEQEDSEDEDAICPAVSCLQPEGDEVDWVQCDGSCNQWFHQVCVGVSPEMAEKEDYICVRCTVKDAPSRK
Compound,Potency,"activity change, negative = inhibition"
COc1ccc2[nH]c3c(c2c1)CCNC31CCN(C(=O)c2ccc(OC)c(F)c2)CC1,"inconclusive: 14.1 µM [inhibitor, partial curve, poor fit]",
CC1=C(c2ccc(C)cc2)S(=O)(=O)N(Cc2ccc(C(=O)NCc3ccccc3F)cc2)C1=O,"inconclusive: 11.2 µM [inhibitor, partial curve, poor fit]",
CNC(=O)c1cc(NC(=O)C2CCC2)cc2nc(C)ccc12,active: 31.6 µM,
Cc1ccccc1NC(=O)c1c(NC(=O)C(F)(F)F)sc2c1CCCCC2,"inconclusive: 14.1 µM [inhibitor, partial curve, poor fit]",
Cc1cc(Cn2cc3c4c(cccc42)[C@H](CC(C)C)N[C@H](C(=O)N2CCN(C)CC2)C3)no1,"inconclusive: 22.4 µM [inhibitor, single point]",
COCC(=O)Nc1ccc(-c2noc([C@@H]3CCCN3Cc3cccnc3)n2)cn1,,inactive: -7.48% [at 86.2 µM]
O=C(O)c1ccnc(C2CCCC/C2=N\O)c1 (stereo unspecified),"inconclusive: 10 µM [inhibitor, partial curve, poor fit]",
CC(C)=CC(=O)Nc1ccc(F)c(Cl)c1,,inactive: 21.7%
O=C1NN(c2cccc(Br)c2)C(=O)/C1=C\c1ccccc1,"inconclusive: 5.62 µM [inhibitor, full curve, poor fit]",
CCOc1ccc(-c2[nH]nc3c2C(c2c(F)cccc2Cl)C(C#N)=C(N)O3)c(OCC)c1 (stereo unspecified),,inactive: 6.15%
Cc1cc(=O)oc2cc(OCC(=O)N(C)C3(C#N)CCCCC3)c(Cl)cc12,,inactive: 93.1%
CC(C)Nc1nc(C(=O)Nc2nccs2)cs1,"inconclusive: 25.1 µM [inhibitor, single point]",
N/C(=N\NS(=O)(=O)c1ccccc1Cl)c1ccccn1,"inconclusive: 14.1 µM [inhibitor, partial curve, poor fit]",
Nc1nn(Cc2c(F)cccc2Cl)cc1Cl,,inactive: -1.94%
Cc1cc(NC(=O)COC(=O)C2(c3ccc(Cl)cc3)CC2)no1,,inactive: 0.696%
Cc1ccc(CN2C(=O)[C@@H]3C[C@@H](O)CN3C3(CN(Cc4cccc(OC(F)(F)F)c4)C3)C2=O)o1,"inconclusive: 25.1 µM [inhibitor, partial curve, poor fit]",
Cc1ccccc1C(=O)N1CCC(C(=O)Nc2ccc(C(C)C)cc2)CC1,,inactive: -3.3%
O=C(NCc1nnc2ccc(-c3ccccc3)nn12)c1ccc(F)cc1,active: 31.6 µM,
COc1ccc(NCc2cc3ccc(OC)cc3n(CC(=O)Nc3cccc(OC)c3)c2=O)cc1,"inconclusive: 0.501 µM [inhibitor, full curve, poor fit]",
Cc1cc(C)c(NC(=O)c2nn(C)c(=O)c3ccccc23)c(Cl)c1,,inactive: 20.4%
Cc1cccc(OCC(=O)N2CCC3(CC2)NC(=O)N(c2ccc(F)cc2)N3)c1,"inconclusive: 15.8 µM [inhibitor, partial curve, poor fit]",
COc1ccccc1N1CCN(C(=O)c2cc3c(=O)oc4ccc(C)cc4c3s2)CC1,"inconclusive: 3.16 µM [inhibitor, full curve, poor fit]",
O=C(Nc1ccc2c(c1)OCCO2)N1CCC(Cc2noc(C3CCOCC3)n2)C1 (stereo unspecified),,inconclusive: -35.3% [inhibitor]
COc1cc(NC(=O)CCc2c(C)c3ccc(O)cc3oc2=O)cc(OC)c1,"inconclusive: 22.4 µM [inhibitor, partial curve, poor fit]",

Compound,Potency,"activity change, negative = inhibition"
CCOc1ccccc1Nc1sc(C(=O)c2ccc(Cl)cc2)c(N)c1C(=O)NCCc1ccccc1,"inconclusive: 17.8 µM [inhibitor, single point]",
CCN(c1ccc(NC(=O)COc2ccccc2C(=O)c2cc(C#N)c(=O)n(C3CC3)c2)cc1)C(C)C,,inactive: 18.8%
O=C(c1cc(-c2ccco2)nc2ccccc12)N1CCCC1,"inconclusive: 22.4 µM [inhibitor, partial curve, poor fit]",
Brc1ccc(CN2CCc3nc(N4CCN(c5ncccn5)CC4)ncc3C2)cc1,"inconclusive: 39.8 µM [inhibitor, single point]",
CC(C)(C)c1ccc(C(=O)N2CCCC2)s1,,inactive: 20.8%
O=C(O)COc1ccc2cc(-c3ccc(OC(F)(F)F)cc3)c(=O)oc2c1,,inactive: -277%
O=[N+]([O-])c1ccc(OCc2cc(Cl)c3c(c2)OCCO3)cc1,,inactive: -10.2%
C[C@]1(CO)[C@H]2Cc3sc(-c4ccccc4)nc3[C@@H](CC(=O)O)[C@]2(C)CC[C@H]1O,active: 31.6 µM,
CCN1CCCN(S(=O)(=O)c2cnn(CC)c2)CC12CCOCC2,,inactive: -33.1%
CCCCn1nc(NC(=O)COC)c2cc3cc(OC)ccc3nc21,"inconclusive: 39.8 µM [inhibitor, partial curve, poor fit]",
COc1cc(OC)c2c(C)c(CC(=O)Nc3ccc4c(c3)OCCO4)c(=O)oc2c1,,inactive: -3.49%
O=C(O)C1=NOC2CN(C(=O)c3ccc4c(c3)OCO4)CC12 (stereo unspecified),,inactive: 9.39% [at 149 µM]
CC(C)C[C@@H]1N[C@H](C(=O)N2CCCC2)Cc2c[nH]c3cccc1c23,"inconclusive: 39.8 µM [inhibitor, partial curve, poor fit]",
CNC(=O)[C@@H]1C[C@H](Oc2ccccc2)CN1C(=O)C1(C)CCCCC1,,inactive: 0.286%
COCCn1ncc(N2CCCC(CC(=O)NCCN3CCOCC3)C2)cc1=O (stereo unspecified),,inactive: 31.4%
COc1cccc(Nc2nc(-c3ccc4c(c3)CC(C)N4S(C)(=O)=O)cs2)c1 (stereo unspecified),,inactive: 11.7%
Cc1noc(-c2nc(-c3ccc4c(c3)OCO4)no2)n1,"inconclusive: 22.4 µM [inhibitor, single point]",
Cc1ccc2[nH]c(=O)c(CCC(=O)NC(C)C)cc2c1,"inconclusive: 12.6 µM [inhibitor, partial curve]",
COc1ccc(/C=N/n2c(-c3cc(C)[nH]n3)n[nH]c2=S)cc1,"inconclusive: 39.8 µM [inhibitor, partial curve, poor fit]",
CCCCOc1ccc2c(C)c(C)c(=O)oc2c1C,"inconclusive: 14.1 µM [inhibitor, partial curve, poor fit]",
O=C(c1ccccn1)N1CCN(c2cc(-c3cccs3)[nH]n2)CC1,,inactive: -20.3%
Cc1cc2n(n1)CCC(=O)N2Cc1ccc(C(=O)Nc2ccc(Br)c(C)c2)cc1,"inconclusive: 39.8 µM [inhibitor, single point]",
CCc1ccc(NC(=O)C2CCN(c3cc(C(F)(F)F)ncn3)CC2)cc1,"inconclusive: 25.1 µM [inhibitor, partial curve, poor fit]",
COc1ccc(NC(=O)C(NC(=O)/C=C\c2ccc3c(c2)OCO3)c2ccc(OC)cc2)cc1 (stereo unspecified),"inconclusive: 35.5 µM [inhibitor, partial curve, poor fit]",

Compound,Potency,"activity change, negative = inhibition"
O=C(NCc1ccco1)C1CC(c2ccccc2)CN(C(=O)Nc2ccc(Cl)cc2)C1 (stereo unspecified),"inconclusive: 20 µM [inhibitor, partial curve, poor fit]",
COc1ccc(C(C)=O)cc1CO/N=C/c1ccc(OC(F)F)cc1,,inactive: 11.4%
Cc1ccc(/C=N/O)cc1,,inactive: 14%
O=C(Cc1ccccn1)N1CCN(c2nc3ncccc3o2)CC1,"inconclusive: 28.2 µM [inhibitor, partial curve]",
C=CCN(CC=C)S(=O)(=O)c1cccc2nsnc12,,inactive: -8.56%
COP(=O)(OC)c1nc(-c2ccc(C)cc2)oc1N1CCOCC1,"inconclusive: 25.1 µM [inhibitor, partial curve, poor fit]",
Cn1c(=O)c2c(-c3cccc(Br)c3)[nH]cc2n(C)c1=O,"inconclusive: 25.1 µM [inhibitor, partial curve, poor fit]",
CCOc1ccc(C(C)=O)cc1COC(=O)C(C)NC(=O)c1ccccc1 (stereo unspecified),,inactive: -2.81%
Cc1cccc(N2CCN(C(=O)C3CCN(C(=O)C4CC4)CC3)CC2)n1,active: 22.4 µM,
CCOC(=O)c1cc(-c2ccc(F)cc2)n(CCC(=O)NCc2ccccc2OC)c1C,"inconclusive: 2 µM [inhibitor, partial curve, poor fit]",
Cc1c(CN(C)Cc2cccc(C(=O)Nc3ccc(C#N)cc3)c2)cnn1C,,inactive: 12.4%
CNC(=O)N1CCC(C2CCN(S(=O)(=O)c3ccc(F)cc3)C2)CC1 (stereo unspecified),,inactive: -4.58%
Cc1cccc(OCC(=O)N(Cc2ccc(C(C)C)cc2)Cc2ccco2)c1C,"inconclusive: 10 µM [inhibitor, partial curve, poor fit]",
Cc1ccc(N2CC(NC(=O)c3ccco3)CC2=O)cc1C (stereo unspecified),,inactive: -8.16%
O=C(NCCc1ccccc1)c1ccc(CSc2nc3ccncc3n2Cc2ccccc2F)cc1,"inconclusive: 28.2 µM [inhibitor, single point]",
COc1ccc2[nH]c3c(c2c1)CCN(C)C31CCN(C(=O)c2cccn2C)CC1,"inconclusive: 28.2 µM [inhibitor, single point]",
CC(=O)NCCNC(=O)c1cc(=O)[nH]c2ccccc12,"inconclusive: 31.6 µM [inhibitor, single point]",
CCOCCn1c(N2CCN(Cc3ccc(Cl)cc3)CC2)nc2c1c(=O)[nH]c(=O)n2C,,inactive: 8.28%
CN(C)c1ccc(C(=O)NC2CCN(c3cc(-c4ccc(Cl)cc4)[nH]n3)C2)cc1 (stereo unspecified),"inconclusive: 28.2 µM [inhibitor, partial curve, poor fit]",
COC(=O)c1ccccc1NC(=O)CCc1c(C)nc2c(c(C)nn2-c2ccccc2)c1C,"inconclusive: 35.5 µM [inhibitor, single point]",
COCCN1Cc2nc(-c3ccc(OC)c(F)c3)ccc2OCC1=O,active: 39.8 µM,
O=C(Cn1ccn2nc3c(c2c1=O)CCCC3)NCc1ccc(F)cc1,,inactive: -13.6%
COCCOCC(=O)N1CCCN(Cc2ccncc2)C(c2ccccc2)CC(=O)NCC1 (stereo unspecified),"inconclusive: 17.8 µM [inhibitor, single point]",
